# Some of the results follow.
# B1: PfulAvr4 2 (Pseudocercospora fuligena) (protein)
# chain: HHHHHHDYKDDDDKAKPIKPFACPPKDFTTTKCQGPVDCLYANPLSCLGYIQCVCDDDACSTATPYAKSCPTGLAWVEKLKRCDGIKKSACPKKMYEGS
# Tests used:
# Assay in all cases: glycan array binding signal (z-score within array); higher = stronger binding
# Conditions in all cases: glycan notation: IUPAC condensed, linker removed
# [1] = molecular target: Man(a1-2)Man(a1-3)[Man(a1-2)Man(a1-6)]Man(a1-6)[Man(a1-2)Man(a1-2)Man(a1-3)]Man
# Outline: (§1)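 Glycan array data came from 3228 arrays in the Consortium for Functional Glycomics database, and only arrays with an available protein sequence were kept. Glycan names were put into IUPAC-condensed notation, and columns mapping to the same glycan were averaged. The binding signal is a within-array Z-score, averaged across arrays of one protein sequence run at different concentrations or buffers and across linkers. A negative Z-score can be read as non-binding.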
# [2] = molecular target: Man(a1-2)Man(a1-3)[Man(a1-2)Man(a1-6)]Man(a1-6)[Man(a1-2)Man(a1-2)Man(a1-3)]Man(b1-4)GlcNAc(b1-4)GlcNAc
# Outline: as §1
# [3] = molecular target: Man(a1-2)Man(a1-3)[Man(a1-6)]Man(a1-6)[Man(a1-2)Man(a1-3)]Man(b1-4)GlcNAc(b1-4)GlcNAc
# Outline: as §1
# [4] = molecular target: Man(a1-2)Man(a1-6)[Man(a1-3)]Man(a1-6)[Man(a1-2)Man(a1-2)Man(a1-3)]Man
# Outline: as §1
# [5] = molecular target: Man(a1-2)Man(a1-6)[Man(a1-3)]Man(a1-6)[Man(a1-2)Man(a1-2)Man(a1-3)]Man(b1-4)GlcNAc(b1-4)GlcNAc
# Outline: as §1
# Man(a1-3)[Man(a1-6)]Man = molecular target: Man(a1-3)[Man(a1-6)]Man
# Outline: as §1
# [6] = molecular target: Man(a1-3)[Man(a1-6)]Man(a1-6)[Man(a1-2)Man(a1-3)]Man(b1-4)GlcNAc(b1-4)GlcNAc
# Outline: as §1
# [7] = molecular target: Man(a1-3)[Man(a1-6)]Man(a1-6)[Man(a1-3)]Man
# Outline: as §1
# [8] = molecular target: Man(a1-3)[Man(a1-6)]Man(a1-6)[Man(a1-3)]Man(b1-4)GlcNAc(b1-4)GlcNAc
# Outline: as §1
# [9] = molecular target: Man(a1-3)[Man(a1-6)]Man(b1-4)GlcNAc(b1-4)GlcNAc
# Outline: as §1
# [10] = molecular target: Man(a1-3)[Man(a1-6)]Man(b1-4)GlcNAc(b1-4)[Fuc(a1-6)]GlcNAc
# Outline: as §1
# Man(a1-6)Man = molecular target: Man(a1-6)Man
# Outline: as §1
# Man(b1-4)GlcNAc = molecular target: Man(b1-4)GlcNAc
# Outline: as §1
# MurNAc(b1-4)GlcNAc = molecular target: MurNAc(b1-4)GlcNAc
# Outline: as §1
# Neu5Ac(a2-3)Gal = molecular target: Neu5Ac(a2-3)Gal
# Outline: as §1
# [11] = molecular target: Neu5Ac(a2-3)Gal(b1-3)GalNAc
# Outline: as §1
# [12] = molecular target: Neu5Ac(a2-3)Gal(b1-3)GalNAc(b1-3)Gal(a1-4)Gal(b1-4)Glc
# Outline: as §1
# [13] = molecular target: Neu5Ac(a2-3)Gal(b1-3)GalNAc(b1-4)Gal(b1-4)Glc
# Outline: as §1
# [14] = molecular target: Neu5Ac(a2-3)Gal(b1-3)GalNAc(b1-4)[Neu5Ac(a2-3)]Gal(b1-4)Glc
# Outline: as §1
# [15] = molecular target: Neu5Ac(a2-3)Gal(b1-3)GalNAc(b1-4)[Neu5Ac(a2-8)Neu5Ac(a2-3)]Gal(b1-4)Glc
# Outline: as §1
# [16] = molecular target: Neu5Ac(a2-3)Gal(b1-3)GalNAc6S
# Outline: as §1
# [17] = molecular target: Neu5Ac(a2-3)Gal(b1-3)GlcNAc
# Outline: as §1
# [18] = molecular target: Neu5Ac(a2-3)Gal(b1-3)GlcNAc(b1-2)Man
# Outline: as §1
# [19] = molecular target: Neu5Ac(a2-3)Gal(b1-3)GlcNAc(b1-2)Man(a1-3)[GlcNAc(b1-4)][Neu5Ac(a2-3)Gal(b1-3)GlcNAc(b1-2)Man(a1-6)]Man(b1-4)GlcNAc(b1-4)GlcNAc
# Outline: as §1
# [20] = molecular target: Neu5Ac(a2-3)Gal(b1-3)GlcNAc(b1-2)Man(a1-3)[Neu5Ac(a2-3)Gal(b1-3)GlcNAc(b1-2)Man(a1-6)]Man(b1-4)GlcNAc(b1-4)GlcNAc
# Outline: as §1
# [21] = molecular target: Neu5Ac(a2-3)Gal(b1-3)GlcNAc(b1-2)[Neu5Ac(a2-3)Gal(b1-3)GlcNAc(b1-4)]Man(a1-6)[Neu5Ac(a2-3)Gal(b1-3)GlcNAc(b1-2)Man(a1-3)]Man(b1-4)GlcNAc(b1-4)GlcNAc
# Outline: as §1
# [22] = molecular target: Neu5Ac(a2-3)Gal(b1-3)GlcNAc(b1-3)Gal(b1-3)GlcNAc
# Outline: as §1
# [23] = molecular target: Neu5Ac(a2-3)Gal(b1-3)GlcNAc(b1-3)Gal(b1-4)GlcNAc
# Outline: as §1
# [24] = molecular target: Neu5Ac(a2-3)Gal(b1-3)GlcNAc(b1-3)GalNAc
# Outline: as §1
# [25] = molecular target: Neu5Ac(a2-3)Gal(b1-3)GlcNAc(b1-6)GalNAc
# Outline: as §1
# [26] = molecular target: Neu5Ac(a2-3)Gal(b1-3)GlcNAc6S
# Outline: as §1
# [27] = molecular target: Neu5Ac(a2-3)Gal(b1-3)[Fuc(a1-4)]GlcNAc
# Outline: as §1
# [28] = molecular target: Neu5Ac(a2-3)Gal(b1-3)[Fuc(a1-4)]GlcNAc(b1-3)Gal(b1-3)[Fuc(a1-4)]GlcNAc
# Outline: as §1
# [29] = molecular target: Neu5Ac(a2-3)Gal(b1-3)[Fuc(a1-4)]GlcNAc(b1-3)Gal(b1-4)[Fuc(a1-3)]GlcNAc
# Outline: as §1
# [30] = molecular target: Neu5Ac(a2-3)Gal(b1-3)[GlcNAc(b1-6)]GalNAc
# Outline: as §1
# [31] = molecular target: Neu5Ac(a2-3)Gal(b1-3)[Neu5Ac(a2-6)]GalNAc
# Outline: as §1
# [32] = molecular target: Neu5Ac(a2-3)Gal(b1-3)[Neu5Ac(a2-6)]GlcNAc(b1-3)[Fuc(a1-3)[Gal(b1-4)]GlcNAc(b1-6)]Gal(b1-4)Glc
# Outline: as §1
# [33] = molecular target: Neu5Ac(a2-3)Gal(b1-3)]Neu5Ac(a2-3)Gal(b1-4)]GlcNAc
# Outline: as §1
# Neu5Ac(a2-3)Gal(b1-4)Glc = molecular target: Neu5Ac(a2-3)Gal(b1-4)Glc
# Outline: as §1
# [34] = molecular target: Neu5Ac(a2-3)Gal(b1-4)GlcNAc
# Outline: as §1
# [35] = molecular target: Neu5Ac(a2-3)Gal(b1-4)GlcNAc(b1-2)Man
# Outline: as §1
# [36] = molecular target: Neu5Ac(a2-3)Gal(b1-4)GlcNAc(b1-2)Man(a1-3)[GlcNAc(b1-4)][Neu5Ac(a2-3)Gal(b1-4)GlcNAc(b1-2)Man(a1-6)]Man(b1-4)GlcNAc(b1-4)GlcNAc
# Outline: as §1
# [37] = molecular target: Neu5Ac(a2-3)Gal(b1-4)GlcNAc(b1-2)Man(a1-3)[Neu5Ac(a2-3)Gal(b1-4)GlcNAc(b1-2)Man(a1-6)]Man(b1-4)GlcNAc(b1-4)GlcNAc
# Outline: as §1
# [38] = molecular target: Neu5Ac(a2-3)Gal(b1-4)GlcNAc(b1-2)Man(a1-3)[Neu5Ac(a2-3)Gal(b1-4)GlcNAc(b1-2)Man(a1-6)]Man(b1-4)GlcNAc(b1-4)[Fuc(a1-6)]GlcNAc
# Outline: as §1
# [39] = molecular target: Neu5Ac(a2-3)Gal(b1-4)GlcNAc(b1-2)Man(a1-3)[Neu5Ac(a2-6)Gal(b1-4)GlcNAc(b1-2)Man(a1-6)]Man(b1-4)GlcNAc(b1-4)GlcNAc
# Outline: as §1
binder,measurement,setting,value
B1,glycan array binding signal (z-score),[1],-0.359
same,glycan array binding signal (z-score),[2],-0.214
same,glycan array binding signal (z-score),[3],-0.32
same,glycan array binding signal (z-score),[4],-0.389
same,glycan array binding signal (z-score),[5],-0.282
same,glycan array binding signal (z-score),Man(a1-3)[Man(a1-6)]Man,-0.108
same,glycan array binding signal (z-score),[6],-0.104
same,glycan array binding signal (z-score),[7],0.198
same,glycan array binding signal (z-score),[8],-0.196
same,glycan array binding signal (z-score),[9],-0.311
same,glycan array binding signal (z-score),[10],-0.353
same,glycan array binding signal (z-score),Man(a1-6)Man,0.055
same,glycan array binding signal (z-score),Man(b1-4)GlcNAc,0.119
same,glycan array binding signal (z-score),MurNAc(b1-4)GlcNAc,0.075
same,glycan array binding signal (z-score),Neu5Ac(a2-3)Gal,-0.39
same,glycan array binding signal (z-score),[11],-0.292
same,glycan array binding signal (z-score),[12],-0.326
same,glycan array binding signal (z-score),[13],-0.416
same,glycan array binding signal (z-score),[14],-0.254
same,glycan array binding signal (z-score),[15],-0.189
same,glycan array binding signal (z-score),[16],-0.311
same,glycan array binding signal (z-score),[17],-0.248
same,glycan array binding signal (z-score),[18],-0.38
same,glycan array binding signal (z-score),[19],-0.239
same,glycan array binding signal (z-score),[20],7.16
same,glycan array binding signal (z-score),[21],0.392
same,glycan array binding signal (z-score),[22],-0.261
same,glycan array binding signal (z-score),[23],-0.372
same,glycan array binding signal (z-score),[24],-0.01
same,glycan array binding signal (z-score),[25],0.055
same,glycan array binding signal (z-score),[26],0.342
same,glycan array binding signal (z-score),[27],-0.258
same,glycan array binding signal (z-score),[28],-0.212
same,glycan array binding signal (z-score),[29],-0.285
same,glycan array binding signal (z-score),[30],-0.034
same,glycan array binding signal (z-score),[31],0.084
same,glycan array binding signal (z-score),[32],-0.257
same,glycan array binding signal (z-score),[33],-0.167
same,glycan array binding signal (z-score),Neu5Ac(a2-3)Gal(b1-4)Glc,-0.243
same,glycan array binding signal (z-score),[34],-0.07
same,glycan array binding signal (z-score),[35],5.08
same,glycan array binding signal (z-score),[36],-0.297
same,glycan array binding signal (z-score),[37],-0.322
same,glycan array binding signal (z-score),[38],-0.338
same,glycan array binding signal (z-score),[39],1.66

# Reference: the supplement of paper PMC8728848
